# Results from patent US20120052122A1, “Treatment Of Chronic Obstructive Pulmonary Disease With Phosphodiesterase-4 Inhibitor” (Nycomed GmbH, priority 2010, published 2012).
# System: patients with moderate-to-severe COPD
# Assay: Tiotropium plus roflumilast (M2-128) trial, 24 weeks
# Type: in vivo
# Details: Tiotropium + roflumilast vs Tiotropium + placebo
structure (smiles),measurement,value
"O=C(Nc1c(Cl)cncc1Cl)c1ccc(OC(F)F)c(OCC2CC2)c1 [Roflumilast, N-(3,5-dichloropyridin-4-yl)-3-cyclopropylmethoxy-4-difluoromethoxy-benzamide]","Change in postbronchodillator FEV1, difference",81 mL
same,"Change in prebronchodillator FEV1, difference",80 mL
same,"TDI focal score, difference",0.4
